The source holds several records for some structures; these can differ, active in one and inactive in another.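 The endpoint reported here, percent growth, reads 100 for growth as untreated, 0 for no net growth and -100 for all cells dead.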 Not every entry of the source has a single result; some have several. Only these are listed. The calls were made as follows: active = growth percent below 10; inactive = the rest. There may be further records. This drug was run again and again over the years, at its own concentration, as given; each value is one run. Signs of the kind (2×) give the number of equal values in this list.
Test system: OVCAR-4 ovarian
Experiment: NCI-60 one-dose screen, 48 h (100 = growth as untreated, 0 = no growth, -100 = all killed)
Conditions: 0.25 µM

Q: COc1cccc2c1C(=O)c1c(O)c3c(c(O)c1C2=O)C[C@@](O)(C(=O)CO)C[C@@H]3OC1CC(N)C(O)C(C)O1 (stereo partly specified) was tested. Which growth (runs of 2010) did it give?
A: inactive: 73.8, 76.5 (2×), 76.1, 74.3, 72.1 (2×), 73.3, 74.5, 68.8, 76, 75.9, 68, 65.8, 62.2, 72.6, 69.8, 63.6, 67.6, 62.9 (2×), 61.9, 76.6, 62.5, 68.6, 74, 65.2, 79.5 (2×), 81.4, 59, 64.7, 56.6, 60, 68.9, 67.2, 52.2, 71.2, 77.8, 70.9, 69.4, 71.3, 64.8, 63.8, 75.4, 74.6 (2×), 80, 71.4, 70.2, 64.5, 65.6, 67.1, 63.5, 70.4, 72%

Q: And the growth (runs of 2011)?
A: inactive: 73.6, 69.5, 59.2, 67.1, 67.3, 67.4, 63.2 (2×), 68.5, 64.9, 62.1, 69.6, 64.7, 75.2, 73.2 (2×), 72.2, 60.3, 82.5, 76.1 (2×), 72.8, 77.3, 73.3, 87.7, 77.7, 85.7, 74.7, 79.7, 82.7, 72.6, 59.4, 74.5, 79.9 (2×), 63.5, 74, 71.1, 53.7, 62.7 (2×), 64.8, 65.1, 64.6 (2×), 70.1, 70.8, 64, 73, 76.4, 69.8, 56.3, 53.2, 70.3, 66.4, 69, 67, 77.9, 67.2, 75.8, 72%

Q: What about the growth (runs of 2012) of the same compound?
A: inactive: 76.5, 65.1, 69.3, 68, 67.8, 60.2, 73, 75.9, 73.1, 62.7, 66.7, 61.1, 65.2 (2×), 73.6, 52.5, 60.1, 65, 63.6, 64.4, 67.4, 68.9, 68.5, 69 (2×), 72.6, 63.9, 78 (2×), 79.3 (2×), 87.1, 77.8 (3×), 82.2 (2×), 63.7, 72.4, 71.7, 75.3, 67.6 (2×), 66.4, 81.5, 71.5 (2×), 78.2, 80.3, 77.9, 81, 83.9, 91.5, 72.8, 80, 77.2, 79.7, 90.7, 69.7, 68.6, 71.6, 73.5, 70.9, 68.8, 43.7, 55.4, 65.4, 67.9, 80.8%

Q: What about the growth (runs of 2013) of the same compound?
A: inactive: 61.2, 76.7, 80.5, 78.4, 84.4 (4×), 76.6 (2×), 77.1, 80.9, 74.4 (2×), 79.1 (2×), 72.2, 83.9, 63.3, 69.8, 74.6, 83.2, 76.1, 87.1, 83.6, 78.2 (3×), 71, 80.3, 82.8, 78.9, 82.9 (2×), 74.7 (2×), 74, 83.1, 71.3, 68.8, 78.8, 71.7, 81.5 (2×), 81.1, 79.7, 92.1, 82.4, 72.4 (2×), 79.3, 96.8, 94, 70.5, 90.2, 91.3, 85.1, 75.1, 79.6, 62.1 (2×), 70.8, 60.7 (2×), 71.8, 64.6, 67.6, 73.7, 65.9, 60.1, 63.4, 67.5%

Q: What about the growth (runs of 2014) of the same compound?
A: inactive: 66.9 (2×), 71.3, 68.6, 65.6, 59.3, 72.1, 60.6 (2×), 56.4, 67.9 (2×), 64.6 (2×), 65.5, 66.7, 66.8 (2×), 58.7, 67.1, 64.4, 67.8, 64 (3×), 66.4 (3×), 66.3 (3×), 73 (2×), 64.3, 63.4 (2×), 62.7, 63.3, 69.1 (2×), 70, 62.5, 63, 61.5 (2×), 60, 70.4, 69.9 (2×), 66 (2×), 63.8, 59.2, 67.4, 61.3, 62, 60.9, 60.3 (2×), 61.6, 58.2, 60.4, 60.7, 63.2, 73.1, 71.8, 56.2, 56.1, 69.2, 62.8, 71, 67.3, 70.7 (2×), 65.7, 68.3, 65.8 (2×), 68, 70.9, 66.6, 65.4, 58.5, 74.3, 72.7, 73.2, 61.9%

Q: What about the growth (runs of 2015) of the same compound?
A: inactive: 69.1, 70.3 (4×), 67.2 (2×), 60.1, 69.3, 74.4, 66.7, 75.3 (2×), 66.6, 76.5 (2×), 72.5 (2×), 62.8, 71.2, 82, 67.6, 65, 62.6 (2×), 44.7, 47.6, 54.8, 64.5 (2×), 73, 83, 68, 62.9 (2×), 64.8, 67.1 (2×), 74.8, 73.3, 72.2, 71.1, 73.8, 72.3, 63.6, 63.7, 58.1, 71.4, 67.5 (2×), 65.1, 68.7 (2×), 61.7, 71.5 (2×), 65.4, 54.6, 64.7, 69.8, 58.3, 48.9, 50.3, 58.2, 84.9, 64.6, 73.1, 68.5, 72.1 (2×), 82.5, 74.2, 79.1, 77.2 (2×), 79.8 (2×), 81, 78, 68.9, 69.6, 61.8, 70.2, 70.5, 80.5, 78.5, 66, 67.3, 68.8, 69.4%

Q: And the growth (runs of 2016)?
A: inactive: 75.1, 76.7 (2×), 72, 69.8, 77.3, 72.3, 70.8, 65.9, 71.9, 64.3, 70.4, 69.3, 71.3 (3×), 68.2, 60.6, 68.4 (2×), 63.1, 65.3, 59.2, 57, 69, 60.7, 60.5, 62, 63.7, 59.6, 67.9, 63.8, 65.5, 69.4, 74.7, 67.2, 68.5, 67.5 (2×), 68.3, 67.8, 66.9, 72.8, 70.5 (4×), 74.9, 78.9 (2×), 74.4 (2×), 79.9, 78.7 (2×), 72.1, 80.1, 73.5, 78.4, 71.8, 67, 73, 76.3, 77.9, 79, 73.9, 85.5, 81, 94.8, 83.4, 81.9, 80.3, 79.6, 83.2, 84.6 (2×), 88.8, 76.8, 79.7 (2×), 78.8, 85.4, 87.4, 85.8, 79.3, 73.8, 82, 74.2 (2×), 76.1, 72.2%

Q: What about the growth (runs of 2017) of the same compound?
A: inactive: 73.9, 73.3 (3×), 74.9, 74.2, 67.8 (2×), 73 (2×), 71 (3×), 68.4, 61.3, 65.5, 67.1 (2×), 63.1, 69.1 (2×), 60.8, 67.6, 69.6, 63.4, 62.2, 62.1, 65.7, 64.5, 67.3, 71.1 (2×), 66.3, 69, 69.5, 67.5 (3×), 68.5, 70.9, 72.8, 81, 76.4, 66 (2×), 74, 71.7, 66.6, 72 (2×), 62.6, 68.6 (2×), 63.9 (2×), 68.7, 74.8, 68.8, 64.2, 68 (2×), 72.6, 71.3 (2×), 69.9 (2×), 82, 77.7, 70.2, 66.7, 75, 74.5, 66.1, 66.5, 69.4 (2×), 74.3, 89.3, 69.2, 70.7, 61.5, 60.3, 74.6, 71.9, 87.2, 90, 94.2%

Q: What about the growth (runs of 2018) of the same compound?
A: inactive: 93.1, 94.7, 93.9, 89.8 (2×), 90.5, 92.4, 81.3, 91.6, 92.7, 80, 88.7, 93.5, 92.2, 85.1, 74.5, 79.5, 73.6, 73.2, 70.2, 81.8, 78.1, 71.9 (3×), 71.5, 74, 78.7, 67, 71.1, 72.6, 69.7, 69.2 (2×), 77, 74.8, 67.5 (2×), 69.8, 75.2, 81.5, 67.4, 77.3, 74.7, 69.6, 70.4, 72.3, 68.5, 76.6, 52.4, 60.7%

Q: What about the growth (runs of 2019) of the same compound?
A: inactive: 55, 55.2, 63.2 (2×), 58.6, 63.1, 68.8, 62.9 (2×), 62.6 (2×), 66.5, 71.3, 60.1, 65.8, 55.4, 67.3, 65.4, 63.5, 65.3, 58.8, 61.4, 58.9, 62.1 (2×), 67.9, 71.1, 69.7, 54.9, 71.6 (2×), 60.8, 64.9, 67.4, 61.5, 57, 59.3, 73.8, 65.7 (2×), 56.1, 63, 66.3, 69.6, 67.1, 66.1, 71.8, 58.7, 64, 61.7, 62.5%

Q: And the growth (runs of 2020)?
A: inactive: 64.5, 63.5, 70.8, 74.4, 71.6, 70.2, 63.8, 72.3, 73, 67.4, 73.2, 62.7, 56.4, 71, 71.7, 76, 85.8, 72.9, 73.9, 79.5 (2×), 74.5 (2×), 70, 70.4, 64.7%

Reference: PubChem BioAssay (NCI)
